# Measured values reported in PubChem BioAssay AID686978 (National Center for Advancing Translational Sciences (NCATS), 2013).
# Screen size: about 420,000 compounds; about 64,000 (15%) were called active. This list was built around the results that the source calls inconclusive (neither active nor inactive); the mix of calls is not that of the screen. Calls come from the whole dose curve; as a rule, active = well fitted inhibition curve with a large enough effect; inconclusive = small, poorly fitted or top-dose-only effect; inactive = flat fitted curve, though single readings scatter. No potency is given beside an inconclusive call; the fits are too rough.
# Test: qHTS for Inhibitors of human tyrosyl-DNA phosphodiesterase 1 (TDP1): qHTS in cells in absence of CPT; note: nearly all actives have a fitted effect of over 55% in size
# Details: DT40 Tdp1-/- hTDP1 cells, no CPT, ATP luminescence, 48 h; activity change, negative = growth inhibition: at 46.2 µM (top of the series) unless noted
# Procedure, shortened: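 Luminescent ATP content (CellTiter-Glo) served as the growth readout. Knockout chicken DT40 cells expressing human TDP1 were exposed to compounds without camptothecin for a minimum 48 hr at 37 °C.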
# % is set by controls: 0 for no effect and ±100 for the full control effect; potency is the fitted concentration of half-maximal effect; tags give direction and shape of the fitted curve.
SMILES,Potency,"activity change, negative = growth inhibition"
N=C1S/C(=C\c2cn[nH]c2-c2ccc(F)cc2)C(=O)N1c1ccccc1F,"inconclusive [inhibitor, partial curve]",–
C=CCn1c(SCC(=O)NCCC2=CCCCC2)nc2ccc(Cl)cc2c1=O,"inconclusive [inhibitor, partial curve, poor fit]",–
CCOc1ccc(-n2c(=O)c3c(C)c(C)sc3n(CC(=O)NCc3ccco3)c2=O)cc1,"inconclusive [inhibitor, full curve, poor fit]",–
Cc1cc(C)cc(NC(=O)Cn2c(=O)n(-c3cc(C)cc(C)c3)c(=O)c3oc4ccccc4c32)c1,"inconclusive [inhibitor, partial curve, poor fit]",–
COc1cccc(C(=O)NC2CCCc3ccccc32)c1 (stereo not given),inactive,–
CCc1ccc(NC2=NCC(c3ccccc3)S2)cc1 (stereo not given),"inconclusive [inhibitor, single point]",–
NC(=S)Nc1cc(Cl)cc(Cl)c1,"inconclusive [inhibitor, partial curve, poor fit]",–
CCOC(=O)c1[nH]c(C)c(/C(O)=C2\C(=O)C(=O)N(CCCN(C)C)C2c2cccnc2)c1C (stereo not given),inactive,–
NC(=O)C1CCN(c2ncnc3c2c(-c2ccccc2)cn3-c2ccccc2)CC1,"inconclusive [inhibitor, single point]",–
Cc1nc(NC(=O)C2CC2)sc1C(=O)Nc1cccc(Cl)c1,"inconclusive [inhibitor, single point]",–
Cc1ccn2c(=O)nc(SCC(=O)NC3CCCCC3)nc2c1,inactive,–
O=C(Nc1ccc(S(=O)(=O)N2CCCCC2c2cccnc2)cc1)c1ccccc1F (stereo not given),"inconclusive [inhibitor, single point]",–
CCOc1ccc(NC(=S)NC(=O)c2ccco2)cc1,active: 29.1 µM,–
COc1ccc(-n2ccnc2SCC(=O)Nc2nnc(C)s2)cc1,inactive,–
CN(C(=O)c1ccc2c(Cl)c3c(nc2c1)CCC3)c1ccccc1,"inconclusive [inhibitor, single point]",–
O=C(CN1C(=O)NC2(CCc3ccccc32)C1=O)Nc1ccc(Cl)cc1F (stereo not given),"inconclusive [inhibitor, single point]",–
COc1ccc(CNC(=O)C2(CC3CC(c4ccccc4)=NO3)CCN(C(=O)CCCCCBr)CC2)cc1 (stereo not given),"inconclusive [inhibitor, partial curve, poor fit]",–
Cc1ccc(CNC(=O)C2CCCN(S(=O)(=O)c3c(C)noc3/C=C/N(C)C)C2)cc1 (stereo not given),"inconclusive [inhibitor, partial curve]",–
CC(C)CN(C(=O)C1CCCC1)C1CCS(=O)(=O)C1 (stereo not given),inactive,–
O=S(CC(O)c1ccccc1)c1ccccc1 (stereo not given),active: 16.4 µM,–
CCCN(CCC)C(=O)Cn1c(=O)n(CCC(=O)NCCc2ccccc2)c(=O)c2ccccc21,"inconclusive [inhibitor, full curve, poor fit]",–
COc1ccc(CC2(CO)CCN(Cc3ccc4nsnc4c3)CC2)cc1,"inconclusive [inhibitor, single point]",–
C/C(CCC(C)C)=N\NC(=S)NCc1ccccc1,"inconclusive [inhibitor, single point]",–
O=C(CC1C(=O)NCCN1Cc1c(F)cccc1Cl)NC1CCCCCC1 (stereo not given),–,inconclusive: -32.7% [inhibitor]

SMILES,Potency,"activity change, negative = growth inhibition"
CC(=O)Nc1ccc(S(=O)(=O)N2CCSC2c2ccccc2)cc1 (stereo not given),"inconclusive [inhibitor, partial curve]",–
COc1cccc(Cn2c(CNC(=O)CCc3ccccc3)nc3cccnc32)c1,"inconclusive [inhibitor, single point]",–
CC(=O)Nc1cccc(NC(=O)CSc2n[nH]c(-c3ccccc3)n2)c1,inactive,–
COc1ccc(OC(=O)c2cccc([N+](=O)[O-])c2)c(C(=O)/C=C/c2cccs2)c1,"inconclusive [inhibitor, single point]",–
CCCCN1CC(=O)N2[C@H](c3ccc(Cl)cc3)[C@@H]3C(=O)N(CC)C(=O)[C@@H]3[C@]2(Cc2ccccc2)C1=O,inactive,–
CCN1C(N(C)C)=NC[C@@H]1Cc1ccccc1,inactive,–
CC[n+]1c(/C=C(\C)SC)sc2ccccc21,active: 8.2 µM,–
Cc1sc(NC(=O)c2ccccc2)c(C(=O)NCCN(C)C)c1C,"inconclusive [inhibitor, single point]",–
Cc1cc(Cl)ccc1Oc1ccccc1C(=O)CC#N,inactive,–
CN(C)CCn1c(=O)n(Cc2ccco2)c(=O)c2c3c(sc21)CCCCC3,"inconclusive [inhibitor, single point]",–
COc1cc(NC(=O)CCN2CCN(Cc3ccccc3)CC2)cc(OC)c1,–,inconclusive: -31.5% [inhibitor]
COc1cccc(CNC(=O)CCn2nc(C)c3c(C)n(-c4ccccc4)nc3c2=O)c1,"inconclusive [inhibitor, single point]",–
O=C(CN1C(=O)C(=O)N(C2CCCC2)C1=O)Nc1ccc(F)cc1F,inactive,–
CCOC(=O)c1cccc(NC(=S)N2CCN(c3ncc4c(=O)c(C(=O)O)cn(CC)c4n3)CC2)c1,"inconclusive [inhibitor, single point]",–
Cc1ccc(S(=O)(=O)NC2=NCN(C3CCCCC3)CN2)cc1,inactive,–
CC(NC(=O)c1cnc2ccccc2n1)c1ccccc1 (stereo not given),"inconclusive [inhibitor, single point]",–
CCOC(=O)c1c(C)c(C(=O)NCc2ccc(OC)cc2)c(C)n1CC,"inconclusive [inhibitor, single point]",–
O=C(N=Nc1c(O)[nH]c2ccc(Br)cc12)c1cc(-c2cccs2)nc2ccccc12,active: 6.51 µM,–
COc1ccc(-c2ccc(C(=O)Nc3ccccc3)c3occc23)c(C)c1,"inconclusive [inhibitor, single point]",–
COc1ccc(C(=O)N2CCCC(CNC(=O)c3ccccc3Cl)C2)o1 (stereo not given),inactive,–
Cc1ccc(C(=O)NNC(=S)NC(=O)c2ccc(Cl)cc2Cl)cc1,"inconclusive [inhibitor, single point]",–
Cc1c(CCOC(=O)c2cc([N+](=O)[O-])cc([N+](=O)[O-])c2)sc[n+]1CC(=O)c1ccc(Br)cc1,"inconclusive [inhibitor, single point]",–
N#C/C(=N\Nc1cccc(F)c1)C(=O)C1CC1,"inconclusive [inhibitor, single point]",–
COc1ccc(Cc2nnc3sc(SCC(=O)Nc4ccccc4)nn3c2=O)cc1OC,"inconclusive [inhibitor, partial curve]",–

SMILES,Potency,"activity change, negative = growth inhibition"
Cc1c(NC(=O)Nc2cc(Cl)ccc2Cl)c(=O)n(-c2ccccc2)n1C,inactive,–
COc1ccccc1OCCSc1nc2ccc([N+](=O)[O-])cc2s1,"inconclusive [inhibitor, single point]",–
COc1ccc(C2(CO)OC(CO)C(O)C2O)cc1 (stereo not given),"inconclusive [inhibitor, single point]",–
CN1CCC(CN)(N2CCN(c3ccccc3)CC2)CC1,"inconclusive [inhibitor, single point]",–
NS(=O)(=O)c1ccc(CCNC(=O)CSCc2ccccc2)cc1,inactive,–
Cc1cccc(C)c1Nc1nc2ccccc2o1,"inconclusive [inhibitor, single point]",–
COc1ccc(C(C(=O)NC2CCCCC2)N(C(=O)c2cccs2)c2ccc3c(c2)OCO3)cc1 (stereo not given),"inconclusive [inhibitor, single point]",–
CCN(C[C@H]1N[C@@](CC)(C(=O)OC)[C@H]2C(=O)N(C)C(=O)[C@@H]12)S(=O)(=O)c1ccc(C(F)(F)F)cc1,"inconclusive [inhibitor, partial curve]",–
CCOc1cc(C2CC(=O)Nc3cc4c(cc32)OCCO4)ccc1O (stereo not given),"inconclusive [inhibitor, single point]",–
COC(=O)C(C)Sc1nc2c(cnn2-c2ccc(F)cc2)c(=O)[nH]1 (stereo not given),inactive,–
Cc1ccccc1C(=O)NCc1nnc(SCC(=O)N2c3ccccc3Sc3ccccc32)n1C,"inconclusive [inhibitor, single point]",–
CC(=O)NC(CC(=O)NCCc1ccccc1)c1ccccc1 (stereo not given),inactive,–
CCc1nc2ccc(C(=O)Nc3cccc(OCC(=O)N(C)C)c3)cn2c1N(CC)CCOC,active: 16.4 µM,–
CCc1c(C)c(C#N)c2[nH]c3ccccc3n2c1=S,active: 11.6 µM,–
Cc1ccc(S(=O)(=O)CC(O)COc2ccc(F)cc2Cl)c(C)c1 (stereo not given),inactive,–
CC(=O)N(C(C)=O)c1nc(-c2ccccc2)cn1/N=C/c1ccccc1,"inconclusive [inhibitor, single point]",–
Cn1cnc(S(=O)(=O)N2CCCCC2c2cc(C(=O)Nc3cccc4c3CCCC4)no2)c1 (stereo not given),active: 13 µM,–
CC(=O)c1ccc(NC(=O)CN2C(=O)COc3ccc(S(=O)(=O)N4CCCC4)cc32)cc1,"inconclusive [inhibitor, single point]",–
CC(C)(C)C1COc2ccccc2N1C(=O)c1cccc(Cl)c1 (stereo not given),active: 23.1 µM,–
COCCN(C(=O)COC(=O)CCSc1ccc(F)cc1)c1c(N)n(Cc2ccccc2)c(=O)[nH]c1=O,inactive,–
CCOc1ccccc1NS(=O)(=O)c1ccc2c(c1)CC(C)N2C(=O)C1CCC1 (stereo not given),active: 14.6 µM,–
O=C(O)CCC(=O)CCC(=O)c1ccc(Cl)cc1,inactive,–
